Article PMC4336329 (PLoS ONE, 2015)
About 2,200 (0.71%) of roughly 310,000 compounds showed an effect of 50% or more. The effect is printed as a negative number. The list shows a part of the results.

These compounds were tested against human ether-à-go-go-related gene (hERG) potassium channel (human, UniProt Q12809) (assay: primary screen, population patch clamp on CHO cells stably expressing hERG).
Chain of human ether-à-go-go-related gene (hERG) potassium channel (Q12809 whole entry, looked up): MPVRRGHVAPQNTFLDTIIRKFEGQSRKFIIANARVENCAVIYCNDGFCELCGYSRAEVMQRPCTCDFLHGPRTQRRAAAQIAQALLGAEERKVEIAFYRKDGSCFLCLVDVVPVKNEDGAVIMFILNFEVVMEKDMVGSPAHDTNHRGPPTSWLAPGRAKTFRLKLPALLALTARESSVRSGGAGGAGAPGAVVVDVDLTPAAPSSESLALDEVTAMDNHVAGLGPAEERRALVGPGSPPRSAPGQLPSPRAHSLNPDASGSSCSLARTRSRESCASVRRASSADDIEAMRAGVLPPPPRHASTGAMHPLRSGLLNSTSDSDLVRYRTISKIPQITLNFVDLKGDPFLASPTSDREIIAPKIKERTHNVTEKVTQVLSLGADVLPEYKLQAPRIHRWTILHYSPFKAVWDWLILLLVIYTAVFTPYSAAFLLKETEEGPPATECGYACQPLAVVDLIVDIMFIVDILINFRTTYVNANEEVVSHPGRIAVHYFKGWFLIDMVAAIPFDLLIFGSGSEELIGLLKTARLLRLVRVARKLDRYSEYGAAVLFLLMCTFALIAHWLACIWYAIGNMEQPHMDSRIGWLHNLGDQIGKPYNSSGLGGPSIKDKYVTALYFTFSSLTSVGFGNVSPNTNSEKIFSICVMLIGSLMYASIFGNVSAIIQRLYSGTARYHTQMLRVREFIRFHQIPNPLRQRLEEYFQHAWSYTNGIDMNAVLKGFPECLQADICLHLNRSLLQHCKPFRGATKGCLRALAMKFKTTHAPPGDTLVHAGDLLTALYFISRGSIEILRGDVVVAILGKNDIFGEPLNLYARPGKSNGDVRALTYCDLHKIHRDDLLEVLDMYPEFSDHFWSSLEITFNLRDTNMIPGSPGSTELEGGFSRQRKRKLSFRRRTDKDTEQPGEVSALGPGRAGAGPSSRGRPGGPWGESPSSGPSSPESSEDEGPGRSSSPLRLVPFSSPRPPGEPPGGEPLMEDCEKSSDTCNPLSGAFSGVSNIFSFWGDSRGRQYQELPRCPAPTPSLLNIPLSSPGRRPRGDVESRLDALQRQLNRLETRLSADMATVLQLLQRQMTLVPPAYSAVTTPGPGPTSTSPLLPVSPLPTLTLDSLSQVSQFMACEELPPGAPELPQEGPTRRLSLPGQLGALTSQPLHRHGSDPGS

Structure (SMILES) | hERG current change (%, negative = inhibition) at 1uM
COc1ccc(-c2nc3ncccc3o2)cc1NC(=O)c1cccs1 | 2.4%
COc1ccccc1C(=O)NC(=O)COC(=O)c1cccc(NC(C)=O)c1 | 6.4%
CCOc1ccccc1N1C(=O)CN(Cc2ccc(OC)c(OC)c2)C1=S | 18.8%
O=C(NC(=S)NCc1ccco1)c1ccccc1 | 12.5%
CC1Cc2ccccc2N1C(=O)CN(C)S(=O)(=O)c1cccc2cccnc12 (centres unmarked) | 6.07%
COc1ccc(CNC(=O)CCS(=O)(=O)c2ccc(Br)cc2)cc1 | 12.7%
Br.COc1ccc(Nc2nc(-c3sc(C)nc3C)cs2)cc1 | 11.4%
O=C1CCC2S/C(=C/Nc3ccc(C(F)(F)F)cc3)C(=O)N12 (centres unmarked) | -22.1%
COc1ccc(Cn2nnnc2CN2CCN(c3ccc(OC)cc3)CC2)cc1 | 4.25%
O=c1[nH]c2cc3c(cc2cc1CN(Cc1cccnc1)C(=S)NCc1ccco1)OCCO3 | 18.5%
O=C(NCCc1ccccc1)c1cc(S(=O)(=O)N2CCCC2)ccc1F | -2.38%
O=C(NC1CCCN(c2ccc(C(F)(F)F)cn2)C1)c1cc(Cl)ccc1F (centres unmarked) | 12.4%
CCC(=O)N1CCc2cc(S(=O)(=O)NCCC(=O)NC3CCCCCC3)ccc21 | -2.16%
C=CCN1C(=O)C(CC(=O)O)SC1=Nc1ccc(N=Nc2ccccc2)cc1.N (centres unmarked) | 12.2%
COc1ccc(S(=O)(=O)N2Cc3ccccc3CC2C(=O)Nc2nccs2)cc1OC (centres unmarked) | 3.08%
C=CCNC(=O)N1C2=NC(C(=O)OC)=C(C(=O)OC)[C@@H]3N(Cc4ccccc4)c4ccccc4[C@]23C[C@H]1C(=O)OC | 11.4%
Cc1cccc(N2CCN(C(=O)CCCOc3ccccc3)CC2)c1C | -0.828%
CCCCNC(=O)c1ccc(/C=C2\Oc3ccccc3N(C)C2=O)cc1 | -3.85%
CCOC(=O)N1CCc2c(sc(NC(=O)CN3CCN(C)CC3)c2C(=O)Nc2ccccc2)C1 | -85.6%

Structure (SMILES) | hERG current change (%, negative = inhibition) at 1uM
CC1(C)CC(=O)c2c(-c3cccs3)n[nH]c2C1 | -16.7%
COc1ccccc1/C=C/C(=O)Nc1cccc(S(=O)(=O)N2CCOCC2)c1 | 9.15%
COC(=O)c1cc2sccc2n1CC(=O)Nc1cccc(SC)c1 | 17.5%
Cc1cccc(NS(=O)(=O)c2cccc(C(=O)N3CCCC3)c2)c1 | 18.8%
O=C1c2cc(N3CCCC3)c([N+](=O)[O-])cc2C(=O)N1c1ccccc1 | 10.1%
CCCCCN1N=C(C)CC1=O | 3.51%
COc1ccc(N2CC(C(=O)N3CCCC(C)C3)CC2=O)cc1 (centres unmarked) | 5.51%
O=C(Cn1c2ccc(F)cc2c2nc3n(c(=O)c21)CCS3)Nc1ccccc1F | 14.6%
O=c1c2c3nc4ccccc4nc3n(/N=C/c3ccccn3)c2ncn1-c1ccccc1 | 16.8%
Cc1nn(C(C)C(=O)Nc2sc3c(c2C#N)CCCC3)c(C)c1[N+](=O)[O-] (centres unmarked) | 17%
COc1ccccc1-c1cc(C(=O)NN)[nH]n1 | 11.9%
CN=C1SC(C(=O)Nc2ccccc2Cl)CC(=O)N1c1ccc(OC(F)(F)Cl)cc1 (centres unmarked) | 20.3%
Cc1ccc(CNC(=O)C(N=C2NS(=O)(=O)c3ccccc32)C(C)C)cc1 (centres unmarked) | 7.38%
COc1cnc(-c2cccc(C(F)(F)F)c2)[nH]c1=O | 7.01%
CC(=O)Nc1ccc(S(=O)(=O)NCCC(=O)NCCOc2ccccc2)cc1 | 4.7%
Cc1ccc(/C=C/C(=O)c2c(C)cc(C)[nH]c2=O)cc1 | -1.54%
O=C(CNC(=O)c1cccs1)NCC(=O)OCc1ccc(F)cc1 | 0.143%
O=C(NCCC1=CCCCC1)C1CCN(C(=O)Nc2ccccc2)CC1 | 9.51%
COc1cc(C(=S)N2CCOCC2)ccc1OC(=O)c1ccccc1C | 14.9%

Structure (SMILES) | hERG current change (%, negative = inhibition) at 1uM
CCc1ccccc1S(=O)(=O)Cc1ccc(C(=O)N2CCN(c3ccccn3)CC2)o1 | -11.4%
Cc1ccc2c(c1)c1ncnc(N3CCOCC3)c1n2C | 5.69%
Cc1ccc(CCNC(=O)CCS(=O)(=O)Cc2ccc(C)cc2)cc1 | 12.4%
CCOc1ccc(C(=S)NC2CCCCC2)cc1 | 1.9%
C/C(=N\NC(=O)C1(C)CC1(Br)Br)c1ccc([N+](=O)[O-])cc1 (centres unmarked) | 9.87%
COc1cc(-c2noc(-c3cccc(Cl)c3)n2)cc(OC)c1OC | 2.51%
CC(C)Cc1nc2ccc(N)cc2[nH]1.Cl | 0.228%
O=C(Nc1ccccc1N1CCN(C(=O)c2ccccc2)CC1)c1cc(Br)ccc1Cl | 4.27%
CCn1ccc(C(=O)Nc2sc3c(c2C(=O)OC)CCC3)n1 | 12.5%
CC(C)c1nnc(NC(=O)c2cccc(NC(=O)C(F)(F)F)c2)s1 | 7.74%
Cc1c(OC(C)C(=O)NCCCN2CCOCC2)ccc2c1oc(=O)c1ccccc12 (centres unmarked) | 5.53%
COc1cc2c(C(=O)OCCN(C)C)c(CSc3ccccc3)n(C)c2cc1Br | 5.05%
CCCN1CCC[C@@H]2Cc3nc(N)ncc3C[C@H]21.Cl | 8.86%
Cc1ccc(C)c(S(=O)(=O)Nc2ccc3cn[nH]c3c2)c1 | 14.1%
Cc1ccnc(NC(=S)N2CCN(c3cccc(C(F)(F)F)c3)CC2)c1 | 13.6%
CCOc1cc2[nH]c(=S)n(CC3CCCO3)c(=O)c2cc1OCC (centres unmarked) | 9.67%
Clc1cccc(-c2nnc3n2CCCCC3)c1 | 8.23%
COc1ccc(-c2csc3ncnc(N4CCN(S(=O)(=O)c5cccc(F)c5)CC4)c23)cc1 | 7.12%
